Reference: PubChem BioAssay AID360 (National Center for Advancing Translational Sciences (NCATS), 2006)
Out of some 48,000 compounds screened, about 550 (1.1%) were called active. Inconclusive results (about 4%) are left out. Rule as the data show it: active = potency below about 15 µM; inconclusive = mostly about 16 µM to 33 µM; inactive = weaker than that. The list shows a part of the results.

Each compound was assayed against Lysosomal acid glucosylceramidase (Homo sapiens) (UniProt P04062) (assay: Glucocerebrosidase). Details: purified enzyme, resorufin glucoside fluorescence (screen aimed at inhibitors), 20 min.
Summary of the method: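 Wild-type enzyme at 0.2 nM final in 50mM citric acid/KH2PO4, 10mM sodium taurocholate, 0.01% tween-20, pH 5.9, with resorufin beta-D-glucopyranoside at 30 uM final. Compounds titrated, 20 min at RT, red fluorescence read; AC50 from titration.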
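Also: the screen sought inhibitors.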
Potency is read from the fitted curve at half-maximal effect.

Chain of UniProt P04062 (P04062 whole entry, looked up): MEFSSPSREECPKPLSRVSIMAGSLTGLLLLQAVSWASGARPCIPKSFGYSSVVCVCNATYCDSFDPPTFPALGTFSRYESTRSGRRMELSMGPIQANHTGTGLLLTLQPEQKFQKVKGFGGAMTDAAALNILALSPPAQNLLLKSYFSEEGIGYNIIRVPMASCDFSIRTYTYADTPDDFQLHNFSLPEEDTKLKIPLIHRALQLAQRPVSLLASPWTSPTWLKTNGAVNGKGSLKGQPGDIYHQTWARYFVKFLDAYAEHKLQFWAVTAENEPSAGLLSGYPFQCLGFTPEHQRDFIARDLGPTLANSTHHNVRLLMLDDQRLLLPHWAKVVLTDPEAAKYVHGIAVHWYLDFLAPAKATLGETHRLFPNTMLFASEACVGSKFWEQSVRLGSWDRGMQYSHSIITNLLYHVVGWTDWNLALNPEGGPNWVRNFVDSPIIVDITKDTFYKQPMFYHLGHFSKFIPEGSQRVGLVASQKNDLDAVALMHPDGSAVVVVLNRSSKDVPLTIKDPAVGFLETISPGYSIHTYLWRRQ

Potency, inactive:
COc1ccc(C(=O)Nc2ccc(S(=O)(=O)NCc3ccco3)cc2)cc1OC
Cn1c(=O)[nH]c(=O)c2c1nc(N1CCOCC1)n2CCCSc1ncccn1 > 76.9 µM
Cc1cc(Nc2nc3c(c(=O)n(C)c(=O)n3C)n2C)n(-c2ccccc2)n1 > 76.9 µM
O=C(CSc1nnc2scc(-c3ccccc3)n12)N1CCN(Cc2ccccc2)CC1 > 76.9 µM
C=CCn1c(=N)c(C(=O)OC)cc2c(=O)n3cccc(C)c3nc21 > 76.9 µM
CCOCCCNC(=O)CCCOc1ccccc1 > 76.9 µM
O=C(Nc1ccc(CN2CCOCC2)cc1)c1cccc(F)c1 > 76.9 µM
CCOC(=O)N1CCN(S(=O)(=O)c2cc(Br)cnc2N)CC1 > 76.9 µM
COc1cccc(-n2nnc3c(=O)n(CC(=O)N4CCC(C)CC4)cnc32)c1 > 76.9 µM
Cc1nc(Nc2ccc3c(c2)OCCO3)c2oc3ccccc3c2n1 > 76.9 µM
Cc1cccc(N(C)C(=O)CCS(=O)(=O)c2cccc3nonc23)c1 > 76.9 µM
Cn1cnc2c1c(=O)n(Cc1ccc(F)cc1Cl)c(=O)n2C > 76.9 µM
Cc1ccc2oc(-c3ccc(NC(=O)c4cccnc4)cc3)nc2c1 > 76.9 µM
COCCNC(=O)COc1cccc(Oc2ccccc2)c1 > 76.9 µM
O=C1c2cccc3c(Cl)ccc(c23)C(=O)N1O > 76.9 µM
CCOc1ccc(N(CC(=O)Nc2ccc(OC)cc2)S(C)(=O)=O)cc1 > 76.9 µM
CCOc1ccc(-c2nnn(CC(=O)N3CCN(c4ccc(F)cc4)CC3)n2)cc1OCC > 76.9 µM
CCOC(=O)CNC(=O)CN1C(=O)CCS(=O)(=O)c2ccccc21 > 76.9 µM
O=C(CCN1C(=O)c2ccccc2C1=O)OCn1nnc2ccccc2c1=O > 76.9 µM
CCOC(=O)c1csc(NC(=O)c2ccc(OC)c(OC)c2)n1 > 76.9 µM
Cn1c(SCc2ccccn2)nnc1-c1cnccn1 > 76.9 µM
Cc1ccc(NC(=O)NC2CCCCC2)cc1Cl > 76.9 µM
COc1cc2c(C(=O)Nc3ccc4c(c3)OCO4)cn(CC(C)C)c(=O)c2cc1OC > 76.9 µM
COc1ccc(-n2c(=O)c3ccccc3n(CC(=O)NC3CCCC3)c2=O)cc1 > 76.9 µM
COc1ccc(C2(C(=O)Nc3cc(C)on3)CCOCC2)cc1 > 76.9 µM
CS(=O)(=O)NCC(c1cccnc1)N1CCN(c2ccc(F)cc2)CC1 (stereo not given) > 76.9 µM
CC(C)(C)/C(O)=C(/C#N)c1nc2ccccc2[nH]1 > 76.9 µM
CCCOc1cc(C)c(S(=O)(=O)NCCOC)cc1C > 76.9 µM
COc1ccccc1CNC(=O)c1c(O)c2cc(OC)c(OC)cc2[nH]c1=O > 76.9 µM
COc1ccc(N(C(=O)c2ccco2)S(=O)(=O)c2cccs2)cc1 > 76.9 µM
Cc1ccc(NC(=O)CN(C)C(=O)CN2C(=O)NC(C)(c3ccccc3)C2=O)cc1 (stereo not given) > 76.9 µM
Cc1nn(Cc2ccc(F)cc2)c(C)c1NC(=O)c1cnn2cccnc12 > 76.9 µM
C=CCn1c(SCC(=O)NCC2CCCO2)nnc1C1CCCCC1 (stereo not given) > 76.9 µM
Cc1cc(Cl)c(S(=O)(=O)N2CCCCCC2)cc1OCC(N)=O > 76.9 µM
COC(=O)c1cc(/C=C/c2ccccc2)on1 > 76.9 µM
c1ccc(C2COC(c3cccs3)=N2)cc1 (stereo not given) > 76.9 µM
COc1cccc(NC(=O)c2ccccc2-c2nc(-c3ccc(Cl)cc3)no2)c1 > 76.9 µM
CCn1c(SCC(=O)c2ccc(OC)cc2)nnc1C(C)NC(=O)c1ccc(OC)cc1 (stereo not given) > 76.9 µM
CC1(C)C(=O)OC(c2c(F)c(F)c(F)c(F)c2F)C2(CCCCC2)C1=O (stereo not given) > 76.9 µM
CCC(Oc1ccccc1)C(=O)N1CC(C)CC(C)C1 (stereo not given) > 76.9 µM
CCN(CCCNC(=O)COc1cc(=O)n(CC)c2ccccc12)c1ccccc1 > 76.9 µM
Cc1ccc2cc(CN(CC3CCCO3)C(=O)NC3CCCCC3)c(=O)[nH]c2c1C (stereo not given) > 76.9 µM
O=C(CCCCCN1C(=O)c2ccccc2C1=O)NCc1ccco1 > 76.9 µM
O=C(NCc1ccccc1)c1cc(-n2cnnc2)ccc1Cl > 76.9 µM
Cc1noc(C)c1S(=O)(=O)NCC(=O)O > 76.9 µM
COCCn1c(C)nc2oc3ccc(Br)cc3c(=O)c2c1=O > 76.9 µM
COc1ccc(NC(=O)CN2CCN(C3c4ccccc4-c4ccccc43)CC2)c(OC)c1 > 76.9 µM
Cc1ccc(CCNC(=O)C2CCCN(c3nc4ccccc4o3)C2)cc1 (stereo not given) > 76.9 µM
Nc1nc(-c2cccc(NS(=O)(=O)c3ccccc3)c2)cs1
COc1ccc2[nH]c(=O)c(CN(Cc3nnnn3Cc3ccccc3)CC3CCCO3)cc2c1 (stereo not given) > 76.9 µM
COc1ccc(Cl)c(S(=O)(=O)N2CCCC2)c1 > 76.9 µM
CCN(CCCNC(=O)COc1cc(=O)n(C)c2ccccc12)c1ccccc1 > 76.9 µM
CC1Cc2ccccc2N1C(=O)CSC1=NCCS1 (stereo not given) > 76.9 µM
CN(C(=O)CN1C(=O)c2ccccc2S1(=O)=O)c1ccccc1C(=O)O > 76.9 µM
NC(=O)C1CCC(NC(=O)OCc2ccccc2)CC1 (stereo not given) > 76.9 µM
COc1ccc2nc(Nc3ccc4c(c3)OCO4)sc2c1 > 76.9 µM
N#Cc1nc(-c2ccccc2)oc1NCCN1CCCCC1 > 76.9 µM
COc1cccc(CNC(=O)C2CCN(S(=O)(=O)c3cnc[nH]3)CC2)c1 > 76.9 µM
CCn1c(C)csc1=NC(=O)c1ccccc1 > 76.9 µM
COc1cccc(-n2c(Cc3cc(=O)[nH]c(=O)[nH]3)nnc2SCC(=O)N2CCCC2)c1 > 76.9 µM
Cn1c(=O)[nH]c(=O)c2c1nc(N1CCCCCC1)n2CCSc1nc2ccccc2[nH]1
COc1ccc(-c2nnc(CSc3nc4ccccc4c(=O)n3CC(C)C)o2)cc1OC > 76.9 µM
COC(=O)c1ccc2c(=O)n(NC(C)=O)c(=S)[nH]c2c1 > 76.9 µM
Cc1nnc(SCC(=O)Nc2ccc3c(c2)OCO3)o1 > 76.9 µM
COc1ccc(-c2cc(C(F)(F)F)nc(N3CCCCCC3)n2)cc1 > 76.9 µM
COc1ccc(CCNC(=O)CN(C)S(=O)(=O)c2cccc3nsnc23)cc1OC > 76.9 µM
Cc1cc(C(=O)OCC(=O)N2C(C)CCCC2C)c(C)o1 (stereo not given) > 76.9 µM
O=C1CSC(c2cccc(F)c2)N1c1ccccc1F (stereo not given) > 76.9 µM
Cc1cc(C)c(S(=O)(=O)N(CC(=O)N2CCCC2)C2CCCCC2)c(C)c1 > 76.9 µM
CC(C)CC(=O)Nc1ccccc1N1CCN(C(=O)c2ccccc2)CC1 > 76.9 µM
O=S(=O)(/N=C/c1ccccc1O)c1cccs1 > 76.9 µM
COc1cccc(-c2n[nH]c(=S)n2Cc2ccco2)c1OC > 76.9 µM
COc1ccc(CCNC(=O)c2ccc3nc(-c4ccco4)c(-c4ccco4)nc3c2)cc1OC > 76.9 µM
O=C1CCc2cc(S(=O)(=O)N3CCN(C(=O)c4ccco4)CC3)ccc2N1 > 76.9 µM
NS(=O)(=O)c1ccc(CNC(=O)c2ccc(Br)o2)cc1 > 76.9 µM
CCOC(=O)C(C)Sc1nc(-c2ccco2)cc(C(F)(F)F)c1C#N (stereo not given) > 76.9 µM
Cc1ccc(S(=O)(=O)C(F)(F)F)cc1NC(=O)c1cccnc1 > 76.9 µM
COc1ccc(Nc2cc(C(=O)NCCCN3CCN(C)CC3)c3ccccc3n2)c(OC)c1 > 76.9 µM
COc1ccc(NC(=O)Cn2nnc(C(=O)NCc3ccccc3OC)c2N)cc1Cl > 76.9 µM
COc1ccc(Cl)cc1NC(=O)CN1CCC(n2nnc3ccccc32)CC1 > 76.9 µM
Cc1cc(C(F)(F)F)nc(NCc2ccc(F)cc2)n1 > 76.9 µM
COc1cc(SC)ccc1C(=O)OC1CCOC1=O (stereo not given) > 76.9 µM
Nc1cc(C(=O)OCC(=O)NCC2CCCO2)ccc1Cl (stereo not given) > 76.9 µM
Cc1cc(NC(=O)CCC2COc3ccccc3O2)no1 (stereo not given) > 76.9 µM
Cc1cc(=O)n2nc(N3CCCC(C(=O)NCc4ccc5c(c4)OCO5)C3)sc2n1 (stereo not given) > 76.9 µM
COc1ccc(C2C(C(=O)N3CCN(c4ccccn4)CC3)CC(=O)N2c2ccc(OC)cc2)cc1 (stereo not given) > 76.9 µM
COC(=O)c1ccc(C(=O)OC)c(NC(=O)CSc2nc(-c3ccco3)cc(C(F)(F)F)n2)c1 > 76.9 µM
O=C(O)CNC1=NCCC1 > 76.9 µM
Cc1ccc(NC(=O)CS(=O)(=O)c2c[nH]c3ccccc23)c(C)c1
COC(=O)c1[nH]c2cc(C)ccc2c1NC(=O)CN1CCc2cc(OC)c(OC)cc2C1 > 76.9 µM
